Data: PubChem BioAssay AID686978 (National Center for Advancing Translational Sciences (NCATS), 2013)
Hit rate of the full screen: of about 420,000 compounds, about 64,000 (15%) were called active. This list was built around the results that the source calls inconclusive (neither active nor inactive); the mix of calls is not that of the screen. Calls come from the whole dose curve; as a rule, active = well fitted inhibition curve with a large enough effect; inconclusive = small, poorly fitted or top-dose-only effect; inactive = flat fitted curve, though single readings scatter. Potencies of inconclusive entries are left out as doubtful fits.

Assay: qHTS for Inhibitors of human tyrosyl-DNA phosphodiesterase 1 (TDP1): qHTS in cells in absence of CPT; note: nearly all actives have a fitted effect of over 55% in size
Details: DT40 Tdp1-/- hTDP1 cells, no CPT, ATP luminescence, 48 h; activity change, negative = growth inhibition: at 46.2 µM (top of the series) unless noted
Summary of the method: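 Chicken DT40 Tdp1-/- cells stably complemented with human TDP1 were seeded at 400 cells/well with DMSO in place of 20 nM camptothecin. After compound pinning, cells grew at least 48 hr at 37 °C; viability read by CellTiter-Glo luminescence.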
% is set by controls: 0 for no effect and ±100 for the full control effect; potency is the fitted concentration of half-maximal effect; tags give direction and shape of the fitted curve.

Q: With `CCn1c2ccccc2c2cc(/C=N/n3cnnc3)ccc21` as the molecule, how does the Potency read?
A: Its Potency is “inactive”.

Q: For `CCOc1ccccc1NC(=O)Cn1c(=O)n(-c2ccccc2)c(=O)c2oc3ccccc3c21`, which Potency is on record?
A: The Potency was inconclusive [inhibitor, single point].

Q: Which Potency does the source give for `CCN(CC)c1ccc([C@H]2[C@@H]3CCCC[C@]3(O)CCN2CC(=O)NCc2ccco2)cc1` here?
A: Its Potency is inconclusive [inhibitor, single point].

Q: With `O=C1Nc2ccccc2C(=O)N(c2ccc3c(c2)OCCO3)C1C(=O)NC1CC1` (stereo unspecified) as the molecule, how does the Potency read?
A: The Potency was “inactive”.

Q: For `CCOc1ccc(/C=N/NC(=O)c2nnn(-c3nonc3N)c2CN(C)C2CCCCC2)cc1`, which Potency is on record?
A: Its Potency is “inactive”.

Q: With `Cc1cc(C)nc(NC(=O)c2c(-c3c(Cl)cccc3Cl)noc2C)n1` as the molecule, how does the activity change, negative = growth inhibition read?
A: Its activity change, negative = growth inhibition is inconclusive: -32.4% [inhibitor].

Q: For `Fc1cccc(C2NN=C(c3ccccc3)S2)c1` (stereo unspecified), which Potency is on record?
A: Its Potency is “inactive”.

Q: Which Potency does the source give for `CCOc1ccccc1N1CCN(C(=O)c2cccc(-c3ccc(O)cc3)c2)CC1` here?
A: The Potency was inconclusive [inhibitor, single point].

Q: Which Potency does the source give for `COc1cccc(NC(=O)C2CCC(CNS(=O)(=O)c3cccs3)CC2)c1` (stereo unspecified) here?
A: The Potency was inconclusive [inhibitor, partial curve, poor fit].

Q: With `Cc1cccc(Cn2c(=O)n(CC3CCC(C(=O)N4CCOCC4)CC3)c(=O)c3sccc32)c1` (stereo unspecified) as the molecule, how does the Potency read?
A: The Potency was active: 18.4 µM.

Q: With `CC1(C(=O)NS(=O)(=O)c2cccc(OC(F)F)c2)CCN1C(=O)CC(c1ccccc1)c1ccccc1` (stereo unspecified) as the molecule, how does the Potency read?
A: The Potency was inconclusive [inhibitor, single point].

Q: Which Potency does the source give for `Cc1cc(C(C#N)c2ccccc2F)n2ncnc2n1` (stereo unspecified) here?
A: The Potency was “inactive”.

Q: With `O=C(OCCOc1cccc(Cl)c1)c1cc(S(=O)(=O)N2CCCCC2)ccc1N1CCOCC1` as the molecule, how does the Potency read?
A: The Potency was active: 8.2 µM.

Q: Which Potency does the source give for `CC(=O)Nc1ccc(NC(=O)c2ccccc2CC[N+](=O)[O-])cc1` here?
A: The Potency was “inactive”.

Q: Which Potency does the source give for `COc1cc(OC)c(C(=O)OCC(=O)Nc2ccc(S(=O)(=O)N3CCOCC3)cc2)cc1OC` here?
A: Its Potency is inconclusive [inhibitor, single point].

Q: With `Cc1ccc(NC(=S)N(CCN(C)C)Cc2cccs2)cc1` as the molecule, how does the Potency read?
A: Its Potency is “inactive”.

Q: With `OC[C@@H]1CN(Cc2ccc3c(c2)OCO3)C[C@H](n2cnc3c(NC4CCCC4)ncnc32)O1` as the molecule, how does the Potency read?
A: Its Potency is inconclusive [inhibitor, partial curve].

Q: For `C=CC[n+]1c(-c2ccccc2)csc1NC(C)(C)C`, which Potency is on record?
A: The Potency was “inactive”.

Q: Which Potency does the source give for `O=C(NCc1cccnc1)c1cnn(-c2nccc(-c3cccs3)n2)c1C1CC1` here?
A: The Potency was inconclusive [inhibitor, single point].

Q: For `Cc1onc(-c2ccccc2)c1C(=O)N1CCCN(C(=O)c2c(-c3ccccc3)noc2C)CC1`, which Potency is on record?
A: The Potency was “inactive”.

Q: For `COc1ccc(S(=O)(=O)N2CCOc3ccccc32)cc1`, which Potency is on record?
A: The Potency was active: 3.66 µM.

Q: With `Nc1c(-c2cccc(Cl)c2)cnn1-c1ccccc1` as the molecule, how does the activity change, negative = growth inhibition read?
A: The activity change, negative = growth inhibition was inconclusive: -31.6% [inhibitor].

Q: With `CCC(=O)NCCc1nc2ccccc2n1Cc1ccc(C)cc1` as the molecule, how does the Potency read?
A: The Potency was inconclusive [inhibitor, single point].

Q: For `Cc1csc(NC(=O)CSc2ncnc3ccccc23)n1`, which Potency is on record?
A: The Potency was inconclusive [inhibitor, single point].

Q: With `O=C(O)CCCCCn1c(SCc2cc(=O)n3cc(Cl)ccc3n2)nc2ccsc2c1=O` as the molecule, how does the Potency read?
A: Its Potency is inconclusive [inhibitor, partial curve].

Q: Which Potency does the source give for `CCOC(=O)c1c(NC(=O)c2cc3nc(-c4ccc(OC)cc4)cc(C(F)(F)F)n3n2)sc2c1CCC(C)C2` (stereo unspecified) here?
A: Its Potency is inconclusive [inhibitor, single point].

Q: Which Potency does the source give for `COC(=O)[C@@]1(Cc2ccc(F)cc2)[C@H]2c3cc(C(=O)N(C)C)n(Cc4ccccc4)c3C[C@H]2CN1C(=O)c1ccccc1` here?
A: Its Potency is active: 20.6 µM.

Q: Which Potency does the source give for `CCOC(=O)C1=C(COC(=O)[C@@H](NC(=O)c2cccc(C)c2)C(C)C)NC(=O)NC1C` (stereo partly specified) here?
A: Its Potency is “inactive”.

Q: Which Potency does the source give for `COc1ccc(CN2C(=O)CN(S(C)(=O)=O)CC2(C)C(=O)Nc2c(C)cccc2C)cc1OC` (stereo unspecified) here?
A: The Potency was “inactive”.

Q: With `CC(C)N(Cc1nc(-c2ccc3c(c2)OCO3)no1)Cc1nccn1C` as the molecule, how does the Potency read?
A: Its Potency is inconclusive [inhibitor, single point].

Q: For `CCC(=O)N1CCc2cc(S(=O)(=O)CCC(=O)NCc3ccc(C)cc3)ccc21`, which Potency is on record?
A: Its Potency is inconclusive [inhibitor, full curve, poor fit].

Q: Which Potency does the source give for `Nc1c(N(CCCO)C(=O)C2CCCC2)c(=O)[nH]c(=O)n1Cc1ccccc1` here?
A: Its Potency is “inactive”.

Q: For `Cc1ccc(NC(=O)CN2C(=O)COc3ccc(S(=O)(=O)N4CCCC4)cc32)cc1C`, which Potency is on record?
A: The Potency was inconclusive [inhibitor, single point].

Q: Which Potency does the source give for `O=C(NCCOc1ccccc1F)Nc1ccc(Br)cc1` here?
A: The Potency was inconclusive [inhibitor, partial curve, poor fit].

Q: With `O=S(=O)(NC1CCCCC1)c1cccc(-c2nnc(-c3ccccc3)o2)c1` as the molecule, how does the Potency read?
A: The Potency was active: 14.6 µM.

Q: With `COc1cc(C2C=C(c3cccs3)Nc3ncnn32)cc(OC)c1OC` (stereo unspecified) as the molecule, how does the Potency read?
A: Its Potency is active: 0.651 µM.

Q: With `COc1ccc(-n2c(=O)c3c4c(sc3n(CC(=O)NCC3CCCO3)c2=O)CN(C(C)=O)CC4)cc1OC` (stereo unspecified) as the molecule, how does the Potency read?
A: Its Potency is “inactive”.

Q: For `COc1ccc(CSCCc2n[nH]c(=S)n2-c2ccccc2)cc1`, which Potency is on record?
A: Its Potency is inconclusive [inhibitor, single point].

Q: For `O=C(NCCOc1ccccc1)c1ccccc1[N+](=O)[O-]`, which Potency is on record?
A: The Potency was “inactive”.

Q: For `O=C(CSc1nccc2ccccc12)N1CCN(c2ccccn2)CC1`, which Potency is on record?
A: The Potency was inconclusive [inhibitor, single point].

Q: For `CCc1cccc(NC(=O)c2cc3c(=O)n(Cc4ccc(OC)cc4)ccc3nc2C)c1`, which Potency is on record?
A: Its Potency is active: 14.6 µM.

Q: Which Potency does the source give for `CCOC(=O)c1ccccc1NC(=O)c1ccc2c(=O)n3c(nc2c1)CCCCC3` here?
A: The Potency was inconclusive [inhibitor, single point].

Q: For `COc1ccc(C)cc1NC(=O)c1ccc(NS(=O)(=O)c2cccc3cccnc23)cc1`, which Potency is on record?
A: Its Potency is inconclusive [inhibitor, single point].

Q: With `CCOC(=O)N1CCN(C(=O)c2ccc(S(=O)(=O)Nc3ccccc3)cc2)CC1` as the molecule, how does the Potency read?
A: Its Potency is inconclusive [inhibitor, single point].

Q: Which Potency does the source give for `Clc1ccc(-c2nnc(C34CC5CC(CC(C5)C3)C4)o2)cn1` here?
A: Its Potency is active: 29.1 µM.

Q: With `Cc1cc2c(NC3CCCCC3)ncnc2s1` as the molecule, how does the Potency read?
A: Its Potency is active: 13 µM.

Q: With `Cn1c(NCC2CCCCC2)nc2cc(-c3ccsc3)sc2c1=O` as the molecule, how does the Potency read?
A: The Potency was inconclusive [inhibitor, partial curve, poor fit].

Q: For `COc1ccc(NC(=O)c2cc(C3CCCCN3C(=O)Cc3ccc(N(C)C)cc3)on2)c(C)c1` (stereo unspecified), which Potency is on record?
A: Its Potency is inconclusive [inhibitor, partial curve, poor fit].

Q: Which Potency does the source give for `COc1ccc(N2C(=O)CC2(/C=C/c2ccccc2OC)C(=O)NC2CCCC2)cc1` (stereo unspecified) here?
A: The Potency was inconclusive [inhibitor, single point].

Q: Which Potency does the source give for `CCOc1ccc(CCNC(=O)c2ccc(Nc3nc4ccccc4n4nnnc34)cc2)cc1OCC` here?
A: The Potency was inconclusive [inhibitor, partial curve].

Q: Which Potency does the source give for `Cc1cc(OC(C)C(=O)NCC(O)c2ccccc2)c2c(C)cc(=O)oc2c1` (stereo unspecified) here?
A: Its Potency is “inactive”.

Q: For `CCOC(=O)C(=CNc1ccccc1Cl)C(=O)OCC`, which Potency is on record?
A: The Potency was inconclusive [inhibitor, partial curve].

Q: Which Potency does the source give for `Cc1ccc(CN2CCN(Cc3cc(=O)c4ccccc4[nH]3)CC2CCO)o1` (stereo unspecified) here?
A: The Potency was “inactive”.

Q: With `Cc1nc(NC(=O)c2ccc([N+](=O)[O-])cc2Cl)sc1C(=O)N(C)C` as the molecule, how does the Potency read?
A: The Potency was inconclusive [inhibitor, single point].

Q: For `COc1ccccc1NC(=O)C(C(C)C)N1C(=O)c2ccccc2C1=O` (stereo unspecified), which Potency is on record?
A: The Potency was “inactive”.

Q: Which Potency does the source give for `O=C(NC1CC1)c1ccc(Cl)c(S(=O)(=O)N2CCOCC2)c1` here?
A: Its Potency is “inactive”.

Q: For `O=C(Cc1cc(=O)[nH]c(=O)[nH]1)N1CCN(C(=O)c2ccco2)CC1`, which Potency is on record?
A: The Potency was “inactive”.

Q: For `COCc1ccc(CN2CCCC(CCC(=O)NCc3cccc(OC)c3)C2)o1` (stereo unspecified), which Potency is on record?
A: Its Potency is “inactive”.

Q: For `CCCn1c(=O)c(C(=O)OCC)c(O)c2cc(Br)ccc21`, which Potency is on record?
A: Its Potency is “inactive”.

Q: Which Potency does the source give for `CCC1CCCCN1C(=O)COc1ccc2c3c(c(=O)oc2c1)CCC3` (stereo unspecified) here?
A: The Potency was inconclusive [inhibitor, single point].

Q: With `O=C(NC1CCCCC1)N(CCO)Cc1cc2cc3c(cc2[nH]c1=O)OCCO3` as the molecule, how does the Potency read?
A: The Potency was inconclusive [inhibitor, single point].

Q: With `O=[N+]([O-])c1ccc2c([N+](=O)[O-])ccc3c2c1CC3` as the molecule, how does the Potency read?
A: Its Potency is active: 18.4 µM.

Q: Which Potency does the source give for `Cc1ccc(C(c2nnnn2CS(=O)(=O)c2ccc(C)cc2)N2CCC(C)CC2)cc1` (stereo unspecified) here?
A: The Potency was inconclusive [inhibitor, single point].

Q: With `COC(=O)c1ccc(NC(=O)c2ccc3c(c2)C(=O)N(Cc2cccnc2)C3=O)cc1` as the molecule, how does the Potency read?
A: The Potency was “inactive”.

Q: For `COc1ccc(/C=C/C(=O)NC(=S)N2CCCCC2)cc1OC`, which Potency is on record?
A: Its Potency is inconclusive [inhibitor, single point].

Q: For `Cc1ccc(S(=O)(=O)Cc2ccc(C(=O)N3CCc4ccccc4C3)o2)cc1`, which Potency is on record?
A: Its Potency is inconclusive [inhibitor, single point].

Q: With `CSc1ccccc1OCc1cc(C(=O)N2CCN(C3CCCC3)C(=O)C2)no1` as the molecule, how does the Potency read?
A: The Potency was inconclusive [inhibitor, single point].

Q: For `N#CCCn1c(=O)c(-c2ccc(F)cc2)nc2cnc(OCc3ccccc3)nc21`, which Potency is on record?
A: Its Potency is “inactive”.

Q: With `COc1ccc(OC)c(C(=O)COC(=O)C(CCSC)NC(=O)COc2ccccc2)c1` (stereo unspecified) as the molecule, how does the Potency read?
A: The Potency was “inactive”.

Q: Which Potency does the source give for `Cc1nnc(N2C(=O)C(=O)/C(=C(/O)c3ccc4c(c3)OCCO4)C2c2cccc([N+](=O)[O-])c2)s1` (stereo unspecified) here?
A: Its Potency is inconclusive [inhibitor, single point].

Q: For `CCCCOc1ccc(C(=O)Nc2ccc(N3CCN(C(=O)C(C)C)CC3)cc2)cc1`, which Potency is on record?
A: The Potency was active: 7.31 µM.
